Measurements taken from publication PMC4336329 (PLoS ONE, 2015).
Screen size: about 310,000 compounds; about 14,000 (4.5%) showed an effect of 50% or more. The effect is printed as a negative number. This is one part of the list.

target: human ether-à-go-go-related gene (hERG) potassium channel (human, UniProt Q12809); experiment: primary screen, population patch clamp on CHO cells stably expressing hERG
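Note: peak tail current of the secondary pulse compared with the same well before compound.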

Chain of human ether-à-go-go-related gene (hERG) potassium channel (Q12809 whole entry, looked up): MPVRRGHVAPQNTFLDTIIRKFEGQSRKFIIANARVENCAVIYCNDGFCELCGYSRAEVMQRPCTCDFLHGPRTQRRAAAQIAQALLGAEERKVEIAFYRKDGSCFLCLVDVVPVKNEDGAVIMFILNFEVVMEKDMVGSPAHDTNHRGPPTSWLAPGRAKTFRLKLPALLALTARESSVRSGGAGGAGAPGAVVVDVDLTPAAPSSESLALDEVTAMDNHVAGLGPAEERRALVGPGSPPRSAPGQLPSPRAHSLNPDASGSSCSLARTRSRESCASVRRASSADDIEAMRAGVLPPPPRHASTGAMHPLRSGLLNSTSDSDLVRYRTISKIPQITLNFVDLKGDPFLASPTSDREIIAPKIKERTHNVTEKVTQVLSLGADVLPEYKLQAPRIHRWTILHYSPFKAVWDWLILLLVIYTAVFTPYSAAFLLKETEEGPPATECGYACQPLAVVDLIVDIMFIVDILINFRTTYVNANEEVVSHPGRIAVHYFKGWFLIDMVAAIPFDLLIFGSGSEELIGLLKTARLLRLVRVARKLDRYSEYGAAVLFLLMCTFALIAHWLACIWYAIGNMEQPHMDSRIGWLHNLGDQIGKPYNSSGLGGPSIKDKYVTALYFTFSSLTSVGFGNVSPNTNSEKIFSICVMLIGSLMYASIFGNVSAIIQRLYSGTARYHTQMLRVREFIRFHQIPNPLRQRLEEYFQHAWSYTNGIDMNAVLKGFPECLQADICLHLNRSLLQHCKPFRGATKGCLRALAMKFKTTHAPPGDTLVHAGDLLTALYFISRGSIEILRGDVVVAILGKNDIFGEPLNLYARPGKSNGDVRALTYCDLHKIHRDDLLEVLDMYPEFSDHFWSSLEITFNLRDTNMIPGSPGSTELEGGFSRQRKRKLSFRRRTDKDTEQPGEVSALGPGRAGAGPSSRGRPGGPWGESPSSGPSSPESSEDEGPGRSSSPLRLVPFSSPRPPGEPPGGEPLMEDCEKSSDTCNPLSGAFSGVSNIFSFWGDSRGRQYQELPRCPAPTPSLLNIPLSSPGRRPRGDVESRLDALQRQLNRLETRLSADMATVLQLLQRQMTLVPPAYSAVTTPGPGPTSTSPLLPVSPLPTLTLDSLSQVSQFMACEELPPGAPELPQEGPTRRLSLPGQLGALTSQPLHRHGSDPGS

Compound | hERG current change (%, negative = inhibition) at 10uM [%]
COc1cccc(-n2nc(C(C)=O)c(C#N)c2-c2ccco2)c1 | 23.5
COc1ccccc1CNS(=O)(=O)c1c(C(=O)N2CCCCC2)c(C)n(C)c1C | 5.51
Cc1ccc(C)c(S(=O)(=O)NCCCc2ccccc2)c1 | -1.65
C=CCn1c(SCC(=O)OCc2ccccc2)nc2c1c(=O)n(C)c(=O)n2C | -14.4
Cc1cc(OCC(=O)NCC(O)c2ccccc2)c2c(C)c(C)c(=O)oc2c1 (centres unmarked) | -7.25
COc1ccc(/C=C2\Oc3cc(OC(=O)N4CCOCC4)ccc3C2=O)cc1 | -1.63
c1ccc(-c2nc(-c3ccncc3)no2)cc1 | 11.8
O=C(N/N=C/c1ccccc1F)NC1CCCCC1 | -18.5
C=CCc1c(O)nc(SCC(=O)c2ccccc2)[nH]c1=O | 2.79
CC(C)Cc1ccc(CN2CCCC(NC(=O)CCN3CCOCC3)C2)cc1 (centres unmarked) | -37.4
Cc1ccc(NC(=Nc2ccc(Br)cc2)N2CCOCC2)cc1C | -63.8
Cc1ccc(NC(=O)c2ccc(NCCCN3CCOCC3)c([N+](=O)[O-])c2)cc1Cl | -10.7
Clc1cccc(C2NCCc3[nH]cnc32)c1 (centres unmarked) | -5.5
COc1cccc(/C=C/C(=O)OCC(=O)NCC2CCCO2)c1 (centres unmarked) | 12.7
O=C(CN1CCOCC1)Nc1c(C(=O)C2CC2)oc2ccccc12 | -6.8
CCOc1ccc2nc(N(CCCN(C)C)C(=O)c3ccc(C(=O)c4ccccc4)cc3)sc2c1.Cl | -35.5
CCc1ccccc1Nc1nc2ccccc2n1CC | 22.9
Cn1c(=O)[nH]c(=O)c2c1nc(CN1CCN(Cc3ccccc3)CC1)n2CC(N)=O | 7.32
COC(=O)c1c(NC(=O)c2ccoc2C)sc2c1CCC2 | -2.01
CC(=O)c1ccc(N(C(=O)CNC(=O)c2ccco2)C(C(=O)NC2CCCC2)c2ccc(C)o2)cc1 (centres unmarked) | -8.48
O=c1cc(O)c2c(=O)n(C3CCCCC3)c3ccccc3c2o1 | 4.96
CCN1C(=O)/C(=C/C=C2/CCCN2C)OC1=S | -10.4

Compound | hERG current change (%, negative = inhibition) at 10uM [%]
Nc1cc2ccncc2c2ccccc12 | 4.19
CC(C)/C(=N/Nc1ccccc1[N+](=O)[O-])c1ccccc1 | 29.9
CCOC(=O)C1=NOC(CN(c2ccccc2)S(=O)(=O)c2ccc(Cl)cc2)C1 (centres unmarked) | -22.8
CCc1ccc(NC(=O)c2n[nH]c(=O)c3ccccc23)cc1 | 7.89
COc1ccc(O)c(/C=N/N2CCOCC2)c1 | 14.1
CN(CCOc1ccc(C=C2C(=O)NC(=O)NC2=O)cc1)c1ccccn1 | 17.2
Cc1cc(S(=O)(=O)Nc2c(C(=O)O)[nH]c3ccccc23)ccc1F | 0.616
CCc1cc(C(=O)N(CC)CC(=O)Nc2ccc(OC)cc2)sc1C | -5.52
CCCN1CCN(CCCNC(=S)Nc2ccc(F)cc2)CC1 | -13
Cn1c(CSCc2ccc(Cl)cc2)nnc1SCC(=O)Nc1nc2ccccc2s1 | 9.45
COC(=O)c1ccccc1NC(=O)c1cccc(NC(=O)C(C)C)c1 | 6.41
CC(Sc1nnc(C2CC2)n1C1CC1)C(=O)NC1(C#N)CCCCC1 (centres unmarked) | -10.2
CCCC(=O)Nc1cc(C(=O)O)ccc1S(=O)(=O)c1ccc(C)cc1 | 11.6
CCN(CC)S(=O)(=O)c1ccc(C)c(NC(=O)CSc2nc3ccccc3[nH]2)c1 | -14.9
CCN(CC)c1ccc(C2C(C(=O)OCCOC(C)C)=C(C)NC3=C2C(=O)CCC3)cc1 (centres unmarked) | -12.3
O=C1N/C(=C/c2cccs2)C(=O)N1Cc1ccccc1F | 14.5
CCOc1c2ccc(C(=O)NCc3ccc(OC(F)(F)F)cc3)cc2nn1CC | -17.4
COc1ccc(CCNC(=O)c2ccc(Cl)c(S(=O)(=O)N3CCCC3)c2)cc1 | -56.6
O=C(NC(=S)Nc1ccc(Cl)cn1)c1cccs1 | 7.54
CSC(=NC#N)N1CCN(c2c(C)cccc2C)CC1 | -14.4
C[C@H]1CN=C(N(C)C)N1CC1CCC(C(C)(C)C)CC1 (some centres unmarked) | -42.7
O=C(CN(C(=O)CNC(=O)c1ccco1)c1ccc(F)cc1)NC1CCCCC1 | -3.48

Compound | hERG current change (%, negative = inhibition) at 10uM [%]
COc1cccc(N2CCN(C(=O)c3cc(-c4ccc(F)cc4)[nH]c3C)CC2)c1 | -68.4
CC(=O)Nc1cnc2ccccc2n1 | 7.12
Cc1ccc(-c2cc(C(F)F)n3ncc(C(=O)Nc4c(C)nn(Cc5c(Cl)cccc5Cl)c4C)c3n2)cc1 | 23.9
O=C(CSc1ccccn1)N1CCN(S(=O)(=O)c2ccc(Cl)cc2)CC1 | -33.9
O=C(Nc1cccc(Cl)c1N1CCOCC1)c1ccc2c(c1)OCCO2 | -18.1
C#CCOCCOCCOCCNc1nc(N2CCN(C(=O)CCCCCCCCCCNC(=O)[C@H](CCCCN)n3cc(CCCC(=O)O)nn3)CC2)nc(N2CCN(C(=O)CCCCCCCCCCNC(=O)[C@H](CCCCN)n3cc(CCCC(=O)O)nn3)CC2)n1 | 0.628
O=C(COC(=O)C1CC2C=CC1C2)Nc1cccc(S(=O)(=O)N2CCCCCC2)c1 (centres unmarked) | -23.2
C=CCCc1ccc(C#N)c(SCc2c(C(=O)OCC)c3cc(OC(C)=O)c(Br)cc3n2C)n1 | -1.18
Cc1nnc(NC(=O)c2ccc(S(=O)(=O)N3CCCCC3C)cc2)o1 (centres unmarked) | 6.64
COc1cc(Cl)ccc1OCc1cc(C(=O)N(C)C2CC(C)(C)NC(C)(C)C2)no1 | -13.3
CCCOc1ccc(-c2c(C(=O)N/N=C/c3ccc(OCC)cc3)nnn2-c2nonc2N)cc1 | 8.92
CC(=O)C1=C(c2cccc([N+](=O)[O-])c2)N(C(C)=O)n2c(C)nnc2S1 | -19.5
Cc1ccccc1C(=O)NC(C(N)=O)P(=O)(OC(C)C)OC(C)C (centres unmarked) | -55.2
CCN(CC(=O)Nc1ccc(NC(C)=O)cc1)C(=O)CCCc1nc2ccccc2s1 | 2.84
CCOc1ccc(NC(=S)N(Cc2ccc(Cl)cc2)Cc2ccco2)cc1 | 3.68
O=C(Nc1cc(Cl)ccc1O)c1snnc1-c1ccccc1 | 19
O=C(NCCCN1CCC(Cc2ccccc2)CC1)C1CC(=O)N(C2CCCCCC2)C1 (centres unmarked) | -66.8
O=C(Cn1nnc(-c2ccc(N3CCOCC3)cc2)n1)N1CCOCC1 | 5.28
C[C@@H](NC(=O)c1[nH]cnc1C(=O)Nc1ccc(Cl)cc1)c1ccccc1 | 15.8
CN(C)C(CNc1ccc(C(F)(F)F)cn1)c1ccccc1 (centres unmarked) | -28.5
O=C(COC(=O)CC12CC3CC(CC(C3)C1)C2)Nc1cccnc1Cl | -16.8
COc1ccc(F)cc1C(=O)C1CCCN(Cc2c(C)n(C)n(-c3ccccc3)c2=O)C1 (centres unmarked) | -11.5

Compound | hERG current change (%, negative = inhibition) at 10uM [%]
O=P1(Oc2ccccc2)C[C@@H](O)[C@@H](O)[C@H](COCc2ccccc2)O1 (some centres unmarked) | 1.68
CCN(CC)S(=O)(=O)c1ccc(NS(=O)(=O)c2ccc(C)c(C)c2)cc1 | -21.6
COc1ccc(Cc2nnc(NC(=O)Nc3ccc(C)cc3)s2)cc1OC | 10.2
CC(NC(=O)/C=C/c1cnc2ccccc2n1)C12CC3CC(CC(C3)C1)C2 (centres unmarked) | -10.1
CN(C)CCCn1c2c(c(SCC(=O)Nc3ccc4c(c3)OCCO4)nc1=O)CCC2 | -12.2
CC(NCc1ccc(S(N)(=O)=O)cc1)C(=O)Nc1ccc([N+](=O)[O-])cc1Cl (centres unmarked) | -50.5
O=C(CCNC(=O)c1ccc(Cl)cc1)Nc1ccccc1N1CCCCC1 | -24.5
Cc1cccc(-n2c(C)cc(C)c(C#N)c2=O)c1 | 7.18
Cc1c(NC(=O)c2ccc(F)c(S(=O)(=O)N3CCOCC3)c2)c(=O)n(-c2ccccc2)n1C | -3
C/C(=N\NC(=O)C1COc2ccccc2O1)c1ccc(Cl)s1 (centres unmarked) | 25.7
O=C(c1n[nH]c2ccccc12)N1CCN(S(=O)(=O)c2ccccc2)CC1 | -6.29
CCOc1ccc(N(CC(=O)NCc2ccc(C)cc2)S(=O)(=O)c2c(C)[nH]c(=O)[nH]c2=O)cc1 | 6.73
COc1cccc(NC(=O)COC(=O)C2CC(=O)N(c3ccc(C)cc3)C2)c1 (centres unmarked) | -9.93
CCCC(=O)NC(C)c1nc2ccccc2n1CC (centres unmarked) | -1.82
Cc1sc2nc(SCC(=O)N3CCOCC3)[nH]c(=O)c2c1C | 12.7
COc1ccccc1CCC(=O)Nc1cc(S(=O)(=O)N2CCCCC2)ccc1N1CCN(C)CC1 | -26.5
COc1ccccc1-c1nnc(SCC(=O)NC2CC2)n1C | -13
CC(C)(C)c1ccc(S(=O)(=O)N2CCN(c3ncccn3)CC2)cc1 | 16
Cc1cnc(=O)[nH]c1SCC(=O)Nc1nccs1 | 7.85
COc1ccc(NC(=O)CCSc2cc(C)c3ccccc3n2)cc1 | -11.5
